# Source: the supplement of paper PMC3334620
# Whole data set: some 33,000 sequences, median “E-score (-0.5 to 0.5)” near -0.017, cut for the highest 2% near 0.3. The list shows a part of the results.
# Molecular target: T1, Sut1 (UniProt P53032)
# T1 sequence: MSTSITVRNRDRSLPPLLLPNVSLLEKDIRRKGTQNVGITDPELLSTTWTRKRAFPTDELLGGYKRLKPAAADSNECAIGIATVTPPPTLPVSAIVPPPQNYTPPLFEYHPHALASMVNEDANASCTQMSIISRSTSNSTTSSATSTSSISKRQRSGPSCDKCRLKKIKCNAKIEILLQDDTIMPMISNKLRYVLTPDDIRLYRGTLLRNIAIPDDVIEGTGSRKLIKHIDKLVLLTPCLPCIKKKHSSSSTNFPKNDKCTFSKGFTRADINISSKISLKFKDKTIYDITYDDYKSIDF
# Assay: PBM E-score (8-mer binding enrichment) (E-score (-0.5 to 0.5)); higher = stronger / more preferred TF binding; most listed sequences are background and not binding sites
# Details: protein concentration: 200 nM; construct: GST-full length
# Procedure, shortened: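 Yeast transcription factors carrying a GST tag, as full-length proteins or DNA-binding domains, were produced by PURExpress in vitro transcription/translation. About 100-200 nM protein was applied to universal all-10-mer Agilent arrays, double-stranded by primer extension on fresh or once-stripped slides. Bound protein was detected with fluorescent anti-GST, and scans were normalised with masliner. The Universal PBM Analysis Suite gave each ungapped eight-base word, pooled with its reverse complement, an E-score, a modified Wilcoxon-Mann-Whitney statistic.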
row,Sequence,PBM E-score
1,AGAGTAAC,0.0673
2,ACGATAGG,-0.0827
3,TCAACTAA,0.181
4,GACGTTAA,0.0697
5,AACTTAGG,0.0876
6,GTCTGGCA,0.0139
7,CACATACG,-0.118
8,CGTGTACC,-0.0552
9,GGCCATTA,0.00383
10,CAGTTGGC,-0.162
11,ACGCGATA,-0.123
12,ACTATTAA,0.12
13,AGAAATGC,0.048
14,CGAGGAAC,-0.019
15,ATTCTGGA,0.11
16,AAGCAGCA,-0.0845
17,ATTAGTCA,0.141
18,CGGTCTGA,0.00124
19,GTTGCCAA,-0.0757
20,AATATCGG,0.197
21,AATCGCAG,0.018
22,TCAGACAA,-0.00742
23,GGGCGATA,-0.27
24,CAGATAAA,0.106
25,AATTTCTA,0.285

row,Sequence,PBM E-score
1,GTGCCCCA,-0.316
2,AAACCCGG,0.189
3,GATCTTTA,0.182
4,AGGTCTTC,-0.256
5,ATTGGATG,0.0551
6,GACCACCA,-0.12
7,AAAATCAT,0.194
8,ATGTCCTG,-0.0409
9,ACCTAGCT,-0.00549
10,AATGGAGT,0.0746
11,ACCAAACC,0.0288
12,GTCGCGAA,-0.0205
13,ACCGACAT,0.00731
14,CGAACAGA,0.0271
15,AAGATCAC,0.0488
16,CCAGGCTC,-0.181
17,GCCAGGTA,-0.192
18,TATCCGAA,0.304
19,CCGGGTTC,-0.0363
20,GAGAGCCA,-0.115
21,AACTATAC,0.177
22,AACGTTAC,0.0371
23,GAAGATCA,0.0779
24,GCGATGCA,-0.235
25,CCTGGGAG,-0.179

row,Sequence,PBM E-score
1,GGGTGACC,-0.248
2,CGAGGATC,-0.0554
3,AAGGGCTA,0.0451
4,GACATTCC,-0.0436
5,CACTCATG,-0.107
6,ACGCACAG,-0.207
7,CTTGCACC,-0.0271
8,CCGCCCAC,-0.0748
9,AGGCGCTA,-0.0939
10,CAAAACAA,0.00775
11,AGTTCATC,0.123
12,GGCGGGTA,-0.196
13,AAGGATGT,-0.112
14,AGGCTAAA,0.0304
15,CACCGTTA,0.0406
16,GGCGACAC,-0.0926
17,CGTCTCGA,-0.113
18,AAGGATCC,-0.036
19,AATGATTA,0.235
20,AAATATTG,0.25
21,CCGGCAAG,0.0478
22,GTCTATGA,0.00254
23,GCGTCTTA,-0.0538
24,GGCTGAAC,-0.148
25,ATGAAATG,0.00832

row,Sequence,PBM E-score
1,CCGACACC,-0.0623
2,AGGAAGTG,-0.0113
3,GTACGTGA,-0.0123
4,ATCAACAA,0.148
5,ACGATGCC,-0.355
6,ATAAGTTG,0.0781
7,CTAAAGCC,-0.108
8,ACGACGTA,-0.0283
9,CCGGTAAC,0.141
10,GCGCAACA,-0.134
11,AACTACCT,0.098
12,ATACGGTG,0.0347
13,CGTGTTAG,-0.013
14,GAAAGGTC,0.00465
15,GCATGTTA,0.133
16,ACTTGACG,0.0562
17,AAGGCCTA,-0.0434
18,CTTTGCGA,0.029
19,ACCCTCTG,-0.219
20,GGTTGATA,0.0788
21,GAGAGGCC,-0.18
22,AATTGTGT,0.0546
23,CTAGTTTA,0.0403
24,CATTTACA,0.0499
25,CGCGCTTA,0.116

row,Sequence,PBM E-score
1,AAAGTGGA,-0.0242
2,ACTCATAT,0.106
3,AGGACGAG,-0.146
4,CCGTCCCC,-0.215
5,ATCTCTAG,0.0132
6,ATACTTTA,0.275
7,CTGCATAC,-0.0103
8,TAGACAAA,0.0918
9,AATGTTCG,0.00278
10,CCAGGCCA,-0.323
11,AACTCAAT,0.208
12,GCGAATAC,0.0643
13,AACAATGG,0.00374
14,CGGTACCC,-0.123
15,CCCAGCAG,-0.0564
16,CCGCATGC,-0.117
17,AACTGGCA,-0.0343
18,CAAGTTAA,0.0317
19,TTCCCCAA,-0.114
20,ACTATACT,0.136
21,TATTTTGA,0.131
22,GCCATTTA,-0.0723
23,CAGCATCA,-0.0489
24,GCATGCCA,-0.207
25,ATGGGAAT,-0.0435

row,Sequence,PBM E-score
1,TCGTCCAA,0.0754
2,CAAAGGCA,-0.05
3,AAATAGCT,0.0603
4,GTGCGCTA,-0.0687
5,CCCATTTC,-0.00805
6,CACGCTTC,-0.213
7,CTGTTCAA,0.121
8,CTATCATA,0.138
9,AAACGACT,0.107
10,AGGACTTG,-0.05
11,GCGAAGGA,-0.103
12,GTATAGGA,-0.0517
13,AAGTTCCC,-0.204
14,GCCCCAGC,-0.152
15,CACCTTCC,-0.0147
16,TGCTGCCA,-0.188
17,CCCATCAA,0.0281
18,ATTCCACA,0.18
19,AAAGTCTA,0.064
20,ACTGACGC,-0.274
21,GAGAACAA,0.192
22,TGAATCAA,0.244
23,ATCATCTC,0.179
24,ACGTAGAA,0.0859
25,AAACACCA,0.0903

row,Sequence,PBM E-score
1,GTTCAACA,0.0826
2,ATTGGGCA,0.0137
3,AGTTTCCG,0.207
4,CAGTCTAG,-0.164
5,ACGGCCCA,-0.114
6,ATCGCTGG,-0.146
7,CTAGGTCA,0.0351
8,CGCCCGGA,0.361
9,GGTTCCAC,0.0587
10,ACGTCGCT,-0.0756
11,TAAGGTCA,-0.0581
12,AATCGGCG,-0.0941
13,CCATAAGG,-0.266
14,CACTGCAA,-0.0662
15,ACCCCTAA,-0.204
16,ACAAACGT,-0.12
17,ACAAAGGT,0.101
18,ACACACAA,0.00492
19,CGAGGACC,-0.136
20,AGCTGAGG,-0.145
21,CCGGTTCG,0.0282
22,CGAGCGCC,-0.182
23,GATGCAGA,-0.178
24,CCTGAACG,-0.182
25,CTAACGAG,-0.0946

row,Sequence,PBM E-score
1,CCAACCGA,0.0523
2,AGGCCCCA,-0.369
3,CACTAGAC,-0.0456
4,AGCTCACA,-0.128
5,ACTGCTAA,-0.00152
6,ATAGTGCA,0.0964
7,GGATCCTA,-0.103
8,ATTTCCAA,0.129
9,CCATCCAG,-0.248
10,CTCGCGGA,0.195
11,AAATAGCA,0.214
12,GACATTGA,0.119
13,AGCTTTAT,0.0137
14,AGCCATGC,-0.011
15,AACTTAGA,0.176
16,AGATGGGG,-0.266
17,ACGAGCGT,-0.265
18,CGTCTGGA,-0.229
19,GCACGAAC,0.0158
20,AGAGCACG,0.125
21,GGAATCAC,0.078
22,CCATCTAA,-0.061
23,GATAAGGA,-0.0824
24,GGAAATGA,0.116
25,AACAACTG,0.138

row,Sequence,PBM E-score
1,AACACTAA,0.211
2,CGCTAGCA,-0.0161
3,AATCACGT,-0.0474
4,ATGTCGGG,-0.058
5,CAGATCGA,-0.19
6,AGGCCGAG,-0.0213
7,TGGCTGAA,-0.00757
8,ACTTTAGC,0.00521
9,AGGGGAAC,-0.142
10,CTCCAAAG,0.0263
11,AAGATGCC,-0.0256
12,AGGTATGG,-0.125
13,CATAAACC,0.136
14,CCTACTCG,-0.128
15,ATGTTGGA,0.133
16,GATACATC,-0.0406
17,AAAAAACT,0.198
18,ATGTCTAC,-0.0126
19,GGTTTTCA,0.14
